Measurements as given in publication PMC4336329 (PLoS ONE, 2015).
Hit rate of the full screen: of about 310,000 compounds, about 14,000 (4.5%) showed an effect of 50% or more. Effects have a minus sign here. Some of the results follow.

Target: human ether-à-go-go-related gene (hERG) potassium channel (human, UniProt Q12809)
Experiment: primary screen, population patch clamp on CHO cells stably expressing hERG
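Note: peak tail current of the secondary pulse compared with the same well before compound.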

human ether-à-go-go-related gene (hERG) potassium channel, sequence (Q12809 whole entry, looked up): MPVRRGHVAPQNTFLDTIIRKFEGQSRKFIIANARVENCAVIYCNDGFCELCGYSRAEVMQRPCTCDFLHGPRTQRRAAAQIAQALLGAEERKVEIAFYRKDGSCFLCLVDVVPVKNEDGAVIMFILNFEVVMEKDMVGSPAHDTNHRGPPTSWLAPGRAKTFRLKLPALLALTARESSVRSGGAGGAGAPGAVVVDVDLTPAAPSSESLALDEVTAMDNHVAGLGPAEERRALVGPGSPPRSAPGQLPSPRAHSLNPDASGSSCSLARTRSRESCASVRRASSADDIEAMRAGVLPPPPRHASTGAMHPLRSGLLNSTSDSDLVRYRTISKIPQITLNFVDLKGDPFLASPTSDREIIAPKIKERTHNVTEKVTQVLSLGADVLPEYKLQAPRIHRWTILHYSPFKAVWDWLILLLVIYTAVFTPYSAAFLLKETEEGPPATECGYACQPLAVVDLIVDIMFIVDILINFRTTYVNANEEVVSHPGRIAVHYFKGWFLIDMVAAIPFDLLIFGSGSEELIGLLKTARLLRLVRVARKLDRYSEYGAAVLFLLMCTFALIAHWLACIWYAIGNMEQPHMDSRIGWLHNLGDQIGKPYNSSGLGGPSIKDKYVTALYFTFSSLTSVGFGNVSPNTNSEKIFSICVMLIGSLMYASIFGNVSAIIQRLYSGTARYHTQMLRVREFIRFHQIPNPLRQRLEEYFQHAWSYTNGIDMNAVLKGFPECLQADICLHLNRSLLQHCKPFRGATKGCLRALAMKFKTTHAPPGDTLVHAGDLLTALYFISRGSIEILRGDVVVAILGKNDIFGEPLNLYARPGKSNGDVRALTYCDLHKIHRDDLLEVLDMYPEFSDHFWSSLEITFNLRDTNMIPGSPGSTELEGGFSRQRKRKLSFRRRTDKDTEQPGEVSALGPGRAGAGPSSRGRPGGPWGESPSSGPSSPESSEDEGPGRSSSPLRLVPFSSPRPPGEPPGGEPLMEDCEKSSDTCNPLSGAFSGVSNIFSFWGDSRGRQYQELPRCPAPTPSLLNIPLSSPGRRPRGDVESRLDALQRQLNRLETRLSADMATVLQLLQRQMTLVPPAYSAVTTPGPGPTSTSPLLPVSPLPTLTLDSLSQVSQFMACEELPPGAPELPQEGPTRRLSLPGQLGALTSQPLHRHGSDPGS

Compound | hERG current change (%, negative = inhibition) at 10uM
COC(=O)c1ccc(NC(=O)Cc2ccccc2)cc1 | -5.36%
C=CCn1c(-c2sccc2C)n[nH]c1=S | 25.6%
CC(=O)N1c2ccc(S(=O)(=O)N(C)CC(=O)Nc3ccccc3C)cc2CC1C (stereo not shown) | 18.9%
Cc1ccc2c(N)c(C)ccc2c1 | 8.56%
O=C(CSc1ccc(-c2ccncc2)nn1)c1ccc(Cl)cc1 | 15.3%
CCOC(=O)CNC(=O)Cn1cnc2c(nnn2-c2cccc(Cl)c2)c1=O | -20.3%
CC(C)(NC(=O)c1ccccc1)c1nc2ccccc2s1 | -0.808%
Cc1nonc1OCCNCCNc1ccc([N+](=O)[O-])cc1Cl | -49.7%
Cn1ccnc1SCC(=O)c1ccc(OC(F)F)cc1 | -26.6%
Cc1cc(COc2ccccc2OCCN2CCN(C)CC2)no1.Cl | -8.36%
Cc1cc(C)cc(CC2CC(=O)N(c3ccc([N+](=O)[O-])cc3)C2=O)c1 (stereo not shown) | 9.78%
O=C(NC12CC3CC(CC(C3)C1)C2)c1ccc(Br)o1 | 4.63%
CSc1nnc(NC(=O)c2cc3ccccc3oc2=O)s1 | 2.45%
COc1ccccc1NS(=O)(=O)c1cc(NC(=O)c2[nH]c(C)c(C(C)=O)c2C)ccc1N1CCOCC1 | 0.128%
O=CNCCCc1nc2ccccc2n1CCc1ccccc1 | -2.98%
COc1ccc(-c2nc(-c3ccccc3)[nH]c(=O)c2C#N)cc1 | 15.9%
Cc1cccc2sc(NC(=O)C3=NN(c4ccccc4)C(=O)CC3)nc12 | 6.14%
COc1ccc(NC(=O)c2ccc(N(C)S(C)(=O)=O)cc2)cc1OC | 7.23%
CCC(=O)Nc1ccc(NC(=S)NC(=O)c2oc3ccccc3c2C)cc1 | 7%
NS(=O)(=O)c1ccc(NC(=O)COC(=O)c2cccc(S(=O)(=O)N3CCCC3)c2)cc1 | 9.19%
COC(=O)Cc1ccc(NC(=S)NNC(=O)c2ccccc2Br)cc1 | 6.03%
NC(=O)C1CCN(C(=O)CN(c2cccc(C(F)(F)F)c2)S(=O)(=O)c2ccccc2)CC1 | -2.35%

Compound | hERG current change (%, negative = inhibition) at 10uM
O=c1[nH]c(N2CCCCC2)nc2ncn(Cc3ccccc3)c12 | 7.95%
COC(=O)c1cc(NC(=O)Nc2ccccc2OC)cc(C(=O)OC)c1 | -2.89%
COC(C[C@H]1O[C@@H]1[C@H](O)COCc1ccccc1)OC | 23.6%
COc1cc(/C=N/NC(=O)c2cccnc2)ccc1OS(=O)(=O)c1ccc(F)cc1 | -15.5%
CCc1ccc2nc3c(c(C(=O)O)c2c1)CCC3 | 2.61%
CCOC(=O)c1c(C)[nH]c(C(=O)C(C)OC(=O)c2ccc(NC(=O)CC#N)cc2)c1C (stereo not shown) | 5.66%
O=S(=O)(c1ccc2ccccc2c1)n1cnc2ccccc21 | -4.44%
CN1C(C(=O)NCC2CC2)CC2Cn3c(nc4cc(Cl)c(Cl)cc43)C21 (stereo not shown) | -34.3%
CSc1nnc(Cn2c(=O)sc3ccccc32)n1-c1ccccc1 | -4.4%
CCCCNC(=O)c1sc(=S)n2c1[nH]c(=O)c1ccccc12 | 3.36%
CC(C)CC(=O)Nc1ccc(C(=O)COc2ccc(-c3nnco3)cc2)cc1 | 1.78%
CCOC(=O)C(NC(C)=O)(Nc1ccc(S(=O)(=O)Nc2nccs2)cc1)C(F)(F)F (stereo not shown) | 13.1%
Cc1ccc(C)c(NC(=O)c2cnn(-c3ccccc3)c2C)c1 | 14.2%
S=C(NCc1ccco1)N1CCN(c2ccc(Cl)cc2)CC1 | 20%
CCCC(C)NC(=O)CN1C(=O)NC2(CCc3ccccc32)C1=O (stereo not shown) | 22.2%
Cc1ccc(-c2noc(CSc3nnc(CCc4ccccc4)n3-c3ccccc3)n2)cc1 | -17.5%
CCc1ccc2[nH]c3nc(N/N=C/c4cccc(O)c4)nnc3c2c1 | 24.8%
CCOC(=O)Cn1c(-c2ccc(OC)cc2)c(-c2ccc(OC)cc2)nnc1=O | 9.79%
COc1ccc(-c2cc(C(=O)Nc3ccc4c(c3)OCO4)no2)cc1 | 20.3%
O=C(Nc1cccc(F)c1)c1cccnc1N1CCOCC1 | -0.522%
Cc1ccc(CNC(=O)c2cc(=O)c3ccc(C)cc3o2)cc1 | 14.5%
O=C(Nc1ccc2oc(=O)ccc2c1)c1cccnc1Cl | -13.4%

Compound | hERG current change (%, negative = inhibition) at 10uM
Clc1cccc(-c2ccc(C=Nc3ccc(N4CCOCC4)cc3)o2)c1 | 5.17%
CC(C)NS(=O)(=O)c1ccc(OCC(N)=O)c(Cl)c1 | 21.6%
Cc1cc(-c2ccc(C)c(S(=O)(=O)NCCCN(Cc3ccccc3)C(C)C)c2)on1 | -36.9%
COc1ccccc1N1CC(C(=O)Nc2nnc(SCC(=O)NC(C)C)s2)CC1=O (stereo not shown) | 20.1%
O=C(O)CCn1c(-c2ccccc2)cc2ccccc21 | 9.79%
c1ccc(COc2ccc(OCCCn3cncn3)cc2)cc1 | -19.4%
O=C(Nc1ccc(C(=O)N2CCOCC2)cc1)c1cc(-c2cccnc2)nc2ccc(Cl)cc12 | 10.6%
Cc1ccc(C(=O)CNc2cccc([N+](=O)[O-])c2)cc1 | 20%
C=C(C)CNC(=S)NN=C1c2ccccc2-c2ccccc21 | 6.79%
COC(=O)CCS(=O)(=O)c1cc(Cl)ccc1Cl | 9.61%
NC(=O)CCCn1c(C(=O)c2ccc(Cl)cc2)c2ccc([N+](=O)[O-])cc2[n+]1[O-] | -74.1%
Cc1ccc(C)c(N2CCN(c3ccncc3N)CC2)c1 | -47.8%
NC(=O)c1ccc(NC(=O)Cc2csc(-c3ccccc3)n2)cc1 | 9.31%
CCOC(=O)c1c(C)[nH]c(C(=O)COC(=O)/C=C/c2ccc(OC(F)F)cc2)c1C | 2.3%
S=c1[nH]ccn1Cc1ccccc1 | 13.3%
Cc1ccc(NC(=O)CC2C(=O)NCCN2C(=S)Nc2ccccc2)c(C)c1 (stereo not shown) | 2.6%
CC(=O)CSc1nnc(-c2ccc(S(=O)(=O)N3CCC(C)CC3)cc2)o1 | 14.2%
COC(=O)CC1c2ccccc2S(=O)(=O)N1Cc1ccccc1 (stereo not shown) | -0.294%
CCCCCn1c(CN2CCN(C(=O)c3ccco3)CC2)nc2c1c(=O)n(C)c(=O)n2C | -60.5%
COc1cccc(CNC(=O)C2CCN(C(=O)N3CC(C)Oc4ccccc43)CC2)c1 (stereo not shown) | -11.8%
Cc1ccccc1NC(=O)C1Cc2ccccc2C(=O)O1 (stereo not shown) | 4.61%
CCOC(=O)Cn1c(=N)n(CCOc2ccc(F)cc2)c2ccccc21.Cl | -65.8%

Compound | hERG current change (%, negative = inhibition) at 10uM
CCCOc1ccc(Br)cc1/C=N/O | -13.4%
NS(=O)(=O)c1ccc(N/N=C2/CCCc3ccccc32)c([N+](=O)[O-])c1 | 24.6%
Cc1ccc(-c2nnn(CC(=O)N(c3cccc(O)c3)C(C(=O)NC(C)(C)C)c3cccs3)n2)o1 (stereo not shown) | 9.58%
Cn1c(=O)c(C(=O)COc2ccc(F)cc2Cl)c(N)n(Cc2ccccc2)c1=O | 17.8%
c1csc(CCNc2ncnc3sc4c(c23)CCC4)c1 | -26.6%
Cc1cc(C(=O)Cn2nnc(-c3ccc(Cl)cc3)n2)c(C)n1-c1ccccc1 | 6.13%
COc1cccc(CNC(=O)CN(c2cc(C)cc(C)c2)S(=O)(=O)c2c(C)noc2C)c1 | -6.66%
COc1ccc(/C=N/NC(=O)c2cccnc2)cc1COc1ccc(NC(C)=O)cc1 | 20%
CCOC(=O)C1CCCN(C(=O)c2c(-c3ccccc3Cl)noc2C)C1 (stereo not shown) | 5.46%
Cc1ccc(-n2c(SCC(=O)N3CCCCC3)nc(O)c(Cc3ccccc3)c2=O)cc1 | 22.4%
COCc1nnc(NC(=O)c2cccc(NC(=O)c3ccccc3)c2)s1 | -8.59%
CCNc1c(NS(=O)(=O)c2ccc(Br)s2)c(=O)oc2ccccc12 | -4.26%
O=[N+]([O-])c1ccc2c(c1)C(N1CCOCC1)/C(=C/COc1ccc3ccccc3c1Br)O2 (stereo not shown) | 14.7%
CC(=O)c1c(C)[nH]c(C(=O)CN2C(=O)NC(CCc3ccccc3)C2=O)c1C (stereo not shown) | 5.19%
Cc1ccc(S(=O)(=O)N(CC2CO2)c2cccc([N+](=O)[O-])c2)cc1 (stereo not shown) | 11.9%
COc1ccc(CCNCC(C)c2ccccc2)cc1.O=C(O)C(=O)O (stereo not shown) | -11.1%
c1ccc(-c2noc(-c3cccnc3)n2)nc1 | 7.02%
COCCSc1nnc(NC(=O)c2ccc3c(c2)OCO3)s1 | 6.82%
Cc1ccc(S(=O)(=O)N2CN(CC3CCCO3)c3nc4ccccc4nc32)cc1 (stereo not shown) | -8.98%
CCOC(=O)N/N=C1\CC(C)CC(C)(C)C1 (stereo not shown) | 12.8%
Cc1c[nH]c(=O)c([N+](=O)[O-])c1 | 19.9%
CCOC(=O)c1c(NC(=O)CN2C(=O)NC(C)(c3ccc(Cl)cc3)C2=O)sc(C(=O)NC)c1C (stereo not shown) | -6.23%
